Laboratory results from US20250332197A1.
Residue numbers refer to the chain shown, from its start.

B1: 1E7-huVH3huVL2 (antibody, human IgG4 S228P, kappa)
heavy: QVQLVQSGAEVKKPGASVKVSCKASGYTFTSYWMHWVRQAPGQGLEWIGMIHPNSGSTNYNEKFKSRVTMTVDTSTSTAYMELSSLRSEDTAVYYCARRYYGSISPDYWGQGTTVTVSSASTKGPSVFPLAPCSRSTSESTAALGCLVKDYFPEPVTVSWNSGALTSGVHTFPAVLQSSGLYSLSSVVTVPSSSLGTKTYTCNVDHKPSNTKVDKRV[in this place human IgG4 Fc with S228P (EU numbers)]
light: DIQMTQSPSSLSASVGDRVTMTCKSSQSLLNSGNQKNYLTWYQQKPGKAPKLLIYWASTRESGVPSRFSGSGSGTDFTLTISSLQPEDFATYYCQNDYSYPFTFGGGTKLEIKRTVAAPSVFIFPPSDEQLKSGTASVVCLLNNFYPREAKVQWKVDNALQSGNSQESVTEQDSKDSTYSLSSTLTLSKADYEKHKVYACEVTHQGLSSPVTKSFNRGEC
B2: 1E7-huVH1huVL1 (antibody, human IgG4 S228P, kappa)
heavy: B1 heavy with V20L, A40R, R67K, V68A, M70L, T74K
light: B1 light with Q3V, A13V, K48Q, A49P, S66D, L84V
B3: 1E7-huVH2huVL2 (antibody, human IgG4 S228P, kappa)
heavy: B1 heavy with V20L, V68A, M70L
light: B1 light
B4: 1B6-huVH3huVL1 (antibody, human IgG4 S228P, kappa)
heavy: QVQLVQSGAEVKKPGASVKVSCKASGYTFTDYNMHWVRQAPGQRLEWIGYINPNNGGTSYNQKFKGRVTITVDTSASTAYMELSSLRSEDTAVYYCVTTRYLAVWGQGTTVTVSSASTKGPSVFPLAPCSRSTSESTAALGCLVKDYFPEPVTVSWNSGALTSGVHTFPAVLQSSGLYSLSSVVTVPSSSLGTKTYTCNVDHKPSNTKVDKRV[in this place human IgG4 Fc with S228P (EU numbers)]
light: B1 light with Q3V, A13V, L30F, S66D, L84V, Y93F, F102L
B5: 1B6-huVH4-HC (IgG1) huVL3 (antibody)
heavy: QVQLVQSGAEVKKPGASVKVSCKASGYTFTDYNMHWVRQAPGQRLEWMGYINPNNGGTSYNQKFQGRVTITVDTSASTAYMELSSLRSEDTAVYYCVTTRYLAVWGQGTTVTVSS[in this place human IgG1 constant region]
light: B1 light with M21I, K24R, L30F, F102L
B6: 1B6-huVH3-HC (IgG1) huVL1 (antibody)
heavy: B5 heavy with M48I, Q65K
light: B1 light with Q3V, A13V, L30F, S66D, L84V, Y93F, F102L
B7: 1B6-huVH3-HC (IgG1) huVL3 (antibody)
heavy: B5 heavy with M48I, Q65K
light: B1 light with M21I, K24R, L30F, F102L
B8: 1B6-huVH4huVL3 (antibody, human IgG4 S228P, kappa)
heavy: B4 heavy with I48M, K65Q
light: B1 light with M21I, K24R, L30F, F102L
B9: 1E7-mVH-HC (IgG1) mVL (antibody)
heavy: QVQLQQPGSELVKPGASVKLSCKASGYTFTSYWMHWVKQRPGQGLEWIGMIHPNSGSTNYNEKFKSKATLTVDKSSSTAYMQLSSLTSEDSAVYYCARRYYGSISPDYWGQGTTLTVSS[in this place human IgG1 constant region]
light: DIVMTQSPSSLSVTAGEKVTMSCKSSQSLLNSGNQKNYLTWYQQKPGQPPKLLIYWASTRESGVPDRFTGSGSGTDFTLTISSVQAEDLAVYYCQNDYSYPFTFGSGTKLEIKRTVAAPSVFIFPPSDEQLKSGTASVVCLLNNFYPREAKVQWKVDNALQSGNSQESVTEQDSKDSTYSLSSTLTLSKADYEKHKVYACEVTHQGLSSPVTKSFNRGEC
B10: 1E7-huVH3huVL1 (antibody, human IgG4 S228P, kappa)
heavy: B1 heavy
light: B1 light with Q3V, A13V, K48Q, A49P, S66D, L84V

What follows are binders tested against Claudin18.2 on cells (A20~18.2 stable expression cell line; KATOIII-Claudin18.2 cells), P56856 (assay: cell-based or functional assay).
For B1, the The fluorescence intensity (MFI), internalization (pHrodo, FACS), antibody 2 µg/mL was 2600 MFI and the The proportion of internalized cells (%), antibody 2 µg/mL was 1.44%.
B2 gave a The fluorescence intensity (MFI), internalization (pHrodo, FACS), antibody 2 µg/mL of 3080 MFI and a The proportion of internalized cells (%), antibody 2 µg/mL of 3.86%.
Binder B3 has a The fluorescence intensity (MFI), internalization (pHrodo, FACS), antibody 2 µg/mL of 2640 MFI and a The proportion of internalized cells (%), antibody 2 µg/mL of 1.54%.
B4 gave a The fluorescence intensity (MFI), internalization (pHrodo, FACS), antibody 2 µg/mL of 6300 MFI and a The proportion of internalized cells (%), antibody 2 µg/mL of 72.4%.
B5 gave a The fluorescence intensity (MFI), internalization (pHrodo, FACS), antibody 2 µg/mL of 6990 MFI and a The proportion of internalized cells (%), antibody 2 µg/mL of 73.8%.
Work on B6 yielded a The fluorescence intensity (MFI), internalization (pHrodo, FACS), antibody 2 µg/mL of 10000 MFI and a The proportion of internalized cells (%), antibody 2 µg/mL of 81.6%.
For B7, the The fluorescence intensity (MFI), internalization (pHrodo, FACS), antibody 2 µg/mL was 9700 MFI and the The proportion of internalized cells (%), antibody 2 µg/mL was 80.3%.
In the case of B8, the The fluorescence intensity (MFI), internalization (pHrodo, FACS), antibody 2 µg/mL is reported as 3820 MFI and the The proportion of internalized cells (%), antibody 2 µg/mL is reported as 10.5%.
For B9, the The fluorescence intensity (MFI), internalization (pHrodo, FACS), antibody 2 µg/mL was 3480 MFI and the The proportion of internalized cells (%), antibody 2 µg/mL was 7.07%.
For B10, the The fluorescence intensity (MFI), internalization (pHrodo, FACS), antibody 2 µg/mL was 2750 MFI and the The proportion of internalized cells (%), antibody 2 µg/mL was 2.07%.
